These results are taken from the supplement of paper PMC4604168 (melanoma cell lines).

Some test systems named below: G361; IPC-298; IST-MEL1; LOXIMVI; MEL-HO; MeWo; RPMI7951; RVH-421; LB2518-MEL; MZ2-MEL.
What all share (assay): cell count relative to DMSO control; melanoma cells; higher = more viable cells
Settings in all cases: library dose: standard library concentration; 72 h

Structures are written as SMILES. The list shows a part of the results. Repeats are few or missing, and single values can be far off.
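Also: cells treated in 1,536-well plates, then fixed and DAPI-stained, with nuclei counted from automated high-throughput microscope images.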

Consider `Cn1cnc2c(F)c(Nc3ccc(Br)cc3Cl)c(C(=O)NOCCO)cc21` [selumetinib] + C=CCNC1=C2C[C@@H](C)C[C@H](OC)[C@H](O)[C@@H](C)/C=C(\C)[C@H](OC(N)=O)[C@@H](OC)/C=C\C=C(/C)C(=O)NC(=CC1=O)C2=O [Tanespimycin] (first compound 0.075 µM, partner dose 0.01 µM), for which the cell count with G361 worked out at 55%; in the experiment on IPC-298, 49%; with IST-MEL1, 56.5%; in the experiment with LOXIMVI, 115%; in the experiment with MEL-HO, 62.8%; with MeWo it was 52.8%. Also, the results for the cell count in the experiment with RPMI7951 and in the experiment on RVH-421 were 23% and 46.7%, respectively.
As to `Cn1cnc2c(F)c(Nc3ccc(Br)cc3Cl)c(C(=O)NOCCO)cc21` [selumetinib] + OCCn1cc(-c2cnc3nnn(Cc4ccc5ncccc5c4)c3n2)cn1 [PF04217903] (first compound 0.075 µM, partner dose 5 µM), the cell count came to 71.6% with G361; 56.5% in the experiment with IPC-298; 80.4% with IST-MEL1; 130% with LOXIMVI; 85.1% in the experiment with MEL-HO; 76.6% in the experiment on MeWo. The results for the cell count in the experiment on RPMI7951 and with RVH-421 were 91.6% and 62.9%, respectively.
For `COc1cc([C@@H]2c3cc4c(cc3[C@@H](O[C@@H]3O[C@@H]5CO[C@@H](C)O[C@H]5[C@H](O)[C@H]3O)[C@H]3COC(=O)[C@H]23)OCO4)cc(OC)c1O` [etoposide] + COc1ccc2c(c1)CCC1C2CCC2(C)C(NCCCCCCN3C(=O)C=CC3=O)CCC12 [U73122] (first compound 0.1 µM, partner dose 2 µM), the cell count stood at 97.9% in the experiment on G361; 85.3% in the experiment on IPC-298; 103% with IST-MEL1; 94.9% with LB2518-MEL; 84.8% in the experiment with LOXIMVI; 85.6% with MEL-HO. Further, the cell count in the experiment with MZ2-MEL was found to be 98.7%; in the experiment on MeWo, 66.5%; in the experiment with RPMI7951 it was 37%; with RVH-421, 79.9%.
